Source: patent US20230416380A1 (AJOU UNIVERSITY INDUSTRY ACADEMIC COOPERATION FOUNDATION, published 2023)
Results are given in words; binding and its absence hold for the method and conditions named. Some entries that bind do so weakly or less than the wild type. For some of these results: Tags and fused reporters may be left off the sequences shown.

T1: mD1-mD2-hD3 IL-5Rα (mouse domains 1 and 2, human domain 3), on the surface of yeast (mouse; human)
T1 sequence: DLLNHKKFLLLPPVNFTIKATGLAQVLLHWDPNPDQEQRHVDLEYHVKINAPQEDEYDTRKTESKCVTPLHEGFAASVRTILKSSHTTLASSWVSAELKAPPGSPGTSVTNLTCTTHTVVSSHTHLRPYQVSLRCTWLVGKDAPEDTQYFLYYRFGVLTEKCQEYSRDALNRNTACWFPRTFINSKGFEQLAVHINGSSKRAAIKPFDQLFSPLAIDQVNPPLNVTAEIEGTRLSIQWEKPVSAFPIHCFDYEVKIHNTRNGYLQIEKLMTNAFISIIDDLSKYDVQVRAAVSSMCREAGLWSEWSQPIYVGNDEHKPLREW

T2: hD1-mD2-mD3 IL-5Rα (human domain 1, mouse domains 2 and 3), on the surface of yeast (human; mouse) (UniProt P21183)
T2 sequence: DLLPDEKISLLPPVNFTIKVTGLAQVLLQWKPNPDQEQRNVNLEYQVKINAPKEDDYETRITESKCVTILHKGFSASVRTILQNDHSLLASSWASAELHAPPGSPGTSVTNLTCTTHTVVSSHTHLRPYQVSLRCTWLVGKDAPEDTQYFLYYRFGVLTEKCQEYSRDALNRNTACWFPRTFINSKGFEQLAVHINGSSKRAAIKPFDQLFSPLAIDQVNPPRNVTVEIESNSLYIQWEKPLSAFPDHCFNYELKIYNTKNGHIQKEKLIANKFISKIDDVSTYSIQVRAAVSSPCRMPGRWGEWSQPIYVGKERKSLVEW

T3: mD1-hD2-mD3 IL-5Rα
T3 sequence (extracellular domain displayed on yeast): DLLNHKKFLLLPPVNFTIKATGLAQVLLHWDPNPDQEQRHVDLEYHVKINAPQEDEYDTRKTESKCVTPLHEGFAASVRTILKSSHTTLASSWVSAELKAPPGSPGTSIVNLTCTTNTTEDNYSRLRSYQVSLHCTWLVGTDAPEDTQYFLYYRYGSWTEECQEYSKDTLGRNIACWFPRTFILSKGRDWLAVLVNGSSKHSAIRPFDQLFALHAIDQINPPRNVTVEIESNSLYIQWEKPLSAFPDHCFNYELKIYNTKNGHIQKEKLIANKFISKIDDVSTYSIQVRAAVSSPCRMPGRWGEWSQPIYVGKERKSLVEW

T4: mouse IL-5Rα extracellular domain expressed on the surface of yeast (mouse) (UniProt P21183)
T4 sequence: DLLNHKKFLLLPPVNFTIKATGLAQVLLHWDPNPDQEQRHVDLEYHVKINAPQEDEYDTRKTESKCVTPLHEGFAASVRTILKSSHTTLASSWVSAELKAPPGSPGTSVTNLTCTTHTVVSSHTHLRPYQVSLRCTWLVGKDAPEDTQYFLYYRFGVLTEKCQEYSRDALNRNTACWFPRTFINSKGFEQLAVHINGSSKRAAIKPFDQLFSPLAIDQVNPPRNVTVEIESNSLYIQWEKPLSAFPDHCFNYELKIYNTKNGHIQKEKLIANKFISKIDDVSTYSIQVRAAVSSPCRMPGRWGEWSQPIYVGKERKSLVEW

T5: sIL-5Rα (extracellular domain of human IL-5 receptor alpha subunit, Asp1-Asn313 of SEQ ID NO: 19, C-terminal Avi tag and 6×His tag, expressed in HEK293F) (human) (UniProt Q01344)
T5 sequence: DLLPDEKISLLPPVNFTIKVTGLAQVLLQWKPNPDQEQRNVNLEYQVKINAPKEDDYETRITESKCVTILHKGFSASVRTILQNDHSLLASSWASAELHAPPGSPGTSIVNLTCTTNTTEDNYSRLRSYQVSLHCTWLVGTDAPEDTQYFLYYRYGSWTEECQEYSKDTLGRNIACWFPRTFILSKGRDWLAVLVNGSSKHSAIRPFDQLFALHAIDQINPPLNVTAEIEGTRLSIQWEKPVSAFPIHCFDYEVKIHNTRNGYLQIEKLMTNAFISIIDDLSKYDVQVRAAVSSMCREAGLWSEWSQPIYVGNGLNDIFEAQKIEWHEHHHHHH


Columns and labels:
[1] = molecular target: T1, mD1-mD2-hD3 IL-5Rα (mouse domains 1 and 2, human domain 3), on the surface of yeast (mouse; human); assay: flow cytometry on yeast, antibody 100 nM
[2] = molecular target: T2, hD1-mD2-mD3 IL-5Rα (human domain 1, mouse domains 2 and 3), on the surface of yeast (human; mouse); assay: flow cytometry on yeast displaying the receptor, antibody at 100 nM, fluorescent secondary antibody; control: 2nd Ab only
mD1-hD2-mD3 IL-5Rα = molecular target: T3, mD1-hD2-mD3 IL-5Rα; assay: as above
[3] = molecular target: T1, mD1-mD2-hD3 IL-5Rα (mouse domains 1 and 2, human domain 3), on the surface of yeast (mouse; human); assay: as above
[4] = molecular target: T4, mouse IL-5Rα extracellular domain expressed on the surface of yeast (mouse); assay: as above
[5] = molecular target: T5, sIL-5Rα (extracellular domain of human IL-5 receptor alpha subunit, Asp1-Asn313 of SEQ ID NO: 19, C-terminal Avi tag and 6×His tag, expressed in HEK293F) (human); assay: biolayer interferometry (Octet QKe): antibody on the sensor, sIL-5Rα in solution; sheet legend 400, 200, 100, 50, 25 nM

Row | Binder | binding [1] | binding [2] | binding (mD1-hD2-mD3 IL-5Rα) | binding [3] | binding [4] | binding [5]
1 | 5R65.45 (anti-IL-5Rα humanized antibody, affinity matured from 5R65) (antibody, human IgG1, V domains shown) VH: QVQLVQSGAEVKKPGSSVKVSCKASGYTFTSYWINWVRQAPGQGLEWIGHIYPNKNENYYNHKFKDKATLTVDKSTNTAYMELSSLRSEDTAVYYCTREYYGRSYYNAMDYWGQGTTLTVSS VL: DIQMTQSPSTLSASVGDRVTITCKASQNVGTAVAWYQQKPGKAPKLLIYWASTRHTGVPDRFSGSGSGTDFTLTISSLQPDDFATYYCQQFGRYPYTFGSGTKVEVK | binds | no binding (tested: 100 nM) | no binding (tested: 100 nM) | binds | no binding (tested: 100 nM) | –
2 | hu2B7 (humanized m2B7) (antibody, V domains shown, Expressed from plasmids encoding HC and LC and purified on protein A; also called humanized antibody hu2B7) VH: QVQLVQSGAEVKKPGSSVKVSCKASGYTFTSYWINWVRQAPGQGLEWIGHIYPSESYTNYNQKFKDKATLTVDKSTNTAYMELSSLRSEDTAVYYCTRDYYGRSYYYAMDYWGQGTTLTVSS VL: DIQMTQSPSTLSASVGDRVTITCKASQNVGTAVAWYQQKPGKAPKLLIYWASTRHTGVPDRFSGSGSGTDFTLTISSLQPDDFATYYCQQFGRYPYTFGSGTKVEVK | – | – | – | – | – | binds
3 | 5R65.39 (anti-IL-5Rα humanized antibody, affinity matured from 5R65) (antibody, human IgG1, V domains shown) VH: QVQLVQSGAEVKKPGSSVKVSCKASGYTFTSYWINWVRQAPGQGLEWIGHIYPNKNENYYNHKFKDKATLTVDKSTNTAYMELSSLRSEDTAVYYCTREFYGRSRYSAMDYWGQGTTLTVSS VL: DIQMTQSPSTLSASVGDRVTITCKASQNVGTAVAWYQQKPGKAPKLLIYWASTRHTGVPDRFSGSGSGTDFTLTISSLQPDDFATYYCQQFGRYPYTFGSGTKVEVK | – | – | no binding (tested: 100 nM) | – | – | –
